{
  "source": "patent US20040072188A1",
  "about": "(Biogen, published 2004)",
  "binders": {"B1": {"name": "human recombinant soluble myc-BAFF (myc-huBAFF, […]) (ligand)", "chain": "not shown", "modifications": "biotinylated (sites not given) in the plate and FACS binding assays; not said to be biotinylated in the proliferation assay", "notes": "range […]; also called biotinylated myc-huBAFF; myc-hBAFF; not shown: myc tag"}},
  "key": {"[1]": {"target": "T1, human TACI, full length, on transfected 293EBNA cells (CA336) (human, UniProt O14836 1-293)", "T1 construct": "whole, on cells; also called huTACI", "T1 sequence (looked up)": "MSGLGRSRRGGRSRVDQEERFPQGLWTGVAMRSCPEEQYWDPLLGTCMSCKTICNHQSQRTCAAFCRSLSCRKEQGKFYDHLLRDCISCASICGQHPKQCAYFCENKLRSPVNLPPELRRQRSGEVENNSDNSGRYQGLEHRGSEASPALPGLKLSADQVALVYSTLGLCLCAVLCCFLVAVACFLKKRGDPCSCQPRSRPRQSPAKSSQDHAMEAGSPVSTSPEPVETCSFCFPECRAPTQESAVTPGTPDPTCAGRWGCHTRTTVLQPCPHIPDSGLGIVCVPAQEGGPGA", "test": "FACS on 293EBNA cells co-transfected with huTACI and GFP, SAV-PE"}, "hTACI:Fc": {"target": "T2, hTACI:Fc (human, UniProt O14836 1-165, limits assumed)", "T2 construct": "not shown: Fc", "T2 sequence (looked up)": "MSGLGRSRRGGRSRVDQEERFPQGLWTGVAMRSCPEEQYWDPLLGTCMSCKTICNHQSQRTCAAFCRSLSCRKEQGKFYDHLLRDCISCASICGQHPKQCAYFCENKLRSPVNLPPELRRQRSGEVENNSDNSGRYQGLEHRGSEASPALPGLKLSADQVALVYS", "test": "FACS competition: 200 ng/ml biotinylated BAFF preincubated with two-fold dilutions of the fusion protein, then BJAB cells"}},
  "data": [
    {"binder": "B1", "values": [
      {"measurement": "binding result", "setting": "[1]", "value": "binds"},
      {"measurement": "binding result", "setting": "hTACI:Fc", "value": "binds"}
    ]}
  ]
}
